Whole data set: some 5,400 compounds, median “IFI” near 2, cut for the highest 2% near 22. Some of the results follow.
Experiment: NOVARTIS: Inhibition Frequency Index (IFI) - the number of HTS assays where a compound showed > 50% inhibition/induction, expressed as a percentage of the number of assays in which the compound was tested.
Type: functional

Row | SMILES | IFI
1 | CCn1c(SCC(=O)Nc2cccc(C)c2)nnc1-c1ccccc1 | 3.67%
2 | Cc1nc(N2CCN(c3ccccn3)CC2)c2c(C)c(C(=O)Nc3c(F)cccc3F)sc2n1 | 2.35%
3 | Cc1ccc(N2C(N)=NC(N)=NC2(C)C)c(C)c1 | 1.51%
4 | Cc1ccc2oc(=O)c3cnn(CC(=O)Nc4ccc(F)cc4Cl)c3c2c1 | 0%
5 | Cc1noc(C)c1S(=O)(=O)N(Cc1ccccc1)CC(O)CN1CCC(NC(=O)Cc2cccs2)C1 (stereo not drawn) | 0.962%
6 | CC1=C(C(=O)OCC(C)C)C(c2ccc(OCc3ccccc3)cc2)C2=C(CC(c3ccccc3)CC2=O)N1 (stereo not drawn) | 3.53%
7 | CCc1ccc(C(C)=NNc2nc(O)cc(-c3ccccc3)n2)cc1 | 0%
8 | CC(C)CNC(=O)c1cnc(NCCC2CCCN2C)nc1NCC1CCCCC1 (stereo not drawn) | 2.88%
9 | CC(=O)N(C)C1=C(N2CCCC2)C(=O)c2ccccc2C1=O | 0%
10 | COc1ccc2c(c1)C(C)(CC#N)C(=O)N2C (stereo not drawn) | 1.51%
11 | OC(c1cc(C(F)(F)F)nc2c(C(F)(F)F)cccc12)C1CCCCN1 (stereo not drawn) | 2.42%
12 | CC1CN=C(c2ccc(NC(=O)c3ccc(C(=O)Nc4ccc(C5=NCC(C)N5)cc4)c(N)c3)cc2)N1 (stereo not drawn) | 3.57%
13 | CC(=O)N1c2ccccc2C(C)(c2ccc(Br)cc2)CC1(C)C (stereo not drawn) | 1.61%
14 | Nc1cc(-c2cccs2)n[nH]1 | 0%
15 | CC(C)CCN(CCC(C)C)CC(O)Cn1c2ccc(Cl)cc2c2cc(Cl)ccc21 (stereo not drawn) | 3.51%
16 | Nc1c(C(=O)c2ccc(Br)cc2)sc2nc(-c3cccnc3)ccc12 | 0%
17 | CC1=C(C(=O)OC(C)C)C(c2ccccc2Cl)C2=C(CC(c3ccccc3)CC2=O)N1 (stereo not drawn) | 2.35%
18 | COc1ccc(NC(=O)CCCCCn2c(SCC(=O)NCC3CCCO3)nc3ccsc3c2=O)cc1 (stereo not drawn) | 0%
19 | CCOC(=O)c1[nH]c(C)c(CNc2cccc(OC)c2)c1C | 0%
20 | O=C(Nc1ccc(C2=NCCCN2)cc1)c1ccc(C(=O)Nc2ccc(C3=NCCCN3)cc2)cc1 | 5.26%
21 | Cc1ccc(CN2C(=O)C(O)(CC(=O)c3ccccc3)c3ccccc32)cc1 (stereo not drawn) | 1.16%
22 | COc1ccc(CCN2C(=S)NC3c4cccc(OC)c4OC2(C)C3C(=O)Nc2ccc(C)cc2C)cc1OC (stereo not drawn) | 0%
23 | O=C(Cc1ccccc1)NCc1ccc(Nc2c(-c3cccnc3)nc3ccccn23)cc1 | 4.17%
24 | FC(F)(F)c1cccc(Nc2nc3nonc3nc2Nc2ccc(Br)cc2)c1 | 22.2%
25 | COc1cccc(C2CC3(CC(C)(C)NC(=S)N3)Oc3cc(OC(C)=O)c(Cl)cc32)c1 (stereo not drawn) | 3.12%
26 | CCCOc1ccc(Cc2c(C)nc3ccc(Br)cc3c2O)cc1 | 0%
27 | COC(=O)c1cn2c(=O)c3ccccc3nc2c2ccccc12 | 0%
28 | CCCNC(=O)c1cc(NC(=O)c2cc(C(F)(F)F)cc(C(F)(F)F)c2)ccc1N1CCCCC1 | 3.67%

Source: ChEMBL document CHEMBL1156829
